# About 14,000 (4.5%) of roughly 310,000 compounds showed an effect of 50% or more. The effect is printed as a negative number. Some of the results follow.
# Biological target: human ether-à-go-go-related gene (hERG) potassium channel (human, UniProt Q12809)
# Assay: primary screen, population patch clamp on CHO cells stably expressing hERG
# 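Note: peak tail current of the secondary pulse compared with the same well before compound.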
# Sequence of human ether-à-go-go-related gene (hERG) potassium channel (Q12809 whole entry, looked up): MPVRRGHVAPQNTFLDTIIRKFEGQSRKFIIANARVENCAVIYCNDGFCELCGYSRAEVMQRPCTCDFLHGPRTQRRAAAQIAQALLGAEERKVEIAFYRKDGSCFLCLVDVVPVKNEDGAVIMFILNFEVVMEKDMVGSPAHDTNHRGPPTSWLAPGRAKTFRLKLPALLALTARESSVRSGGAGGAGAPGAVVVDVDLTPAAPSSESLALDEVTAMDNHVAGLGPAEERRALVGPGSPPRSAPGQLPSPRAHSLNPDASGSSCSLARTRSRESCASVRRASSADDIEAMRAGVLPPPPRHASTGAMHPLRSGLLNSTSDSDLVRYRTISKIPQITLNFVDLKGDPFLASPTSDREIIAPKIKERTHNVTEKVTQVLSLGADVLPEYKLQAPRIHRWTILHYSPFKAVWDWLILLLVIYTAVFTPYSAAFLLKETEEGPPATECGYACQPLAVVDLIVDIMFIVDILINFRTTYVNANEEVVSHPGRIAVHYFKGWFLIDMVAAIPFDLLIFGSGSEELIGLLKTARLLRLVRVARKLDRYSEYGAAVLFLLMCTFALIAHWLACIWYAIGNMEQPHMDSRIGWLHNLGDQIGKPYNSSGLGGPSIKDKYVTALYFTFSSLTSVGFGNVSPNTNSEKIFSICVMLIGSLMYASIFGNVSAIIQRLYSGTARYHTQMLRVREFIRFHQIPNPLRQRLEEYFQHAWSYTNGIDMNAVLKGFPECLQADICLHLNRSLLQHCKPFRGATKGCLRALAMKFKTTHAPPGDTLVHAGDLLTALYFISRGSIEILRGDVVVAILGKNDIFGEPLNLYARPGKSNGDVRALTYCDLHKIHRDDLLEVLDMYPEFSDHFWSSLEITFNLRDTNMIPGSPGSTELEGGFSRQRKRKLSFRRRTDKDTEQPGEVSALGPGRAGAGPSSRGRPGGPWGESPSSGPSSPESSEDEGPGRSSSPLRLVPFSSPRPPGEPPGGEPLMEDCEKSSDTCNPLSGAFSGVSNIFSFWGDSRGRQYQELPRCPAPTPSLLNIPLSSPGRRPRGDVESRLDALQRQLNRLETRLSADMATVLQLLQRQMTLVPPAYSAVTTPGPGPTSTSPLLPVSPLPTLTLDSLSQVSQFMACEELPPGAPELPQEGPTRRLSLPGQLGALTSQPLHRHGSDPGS
row,Compound,"hERG current change (%, negative = inhibition) at 10uM [%]"
1,Cc1cc(C)[n+](-c2ccc(F)cc2)c2[nH]c(=O)[nH]c(=O)c12.[I-],-10.9
2,COc1ccc(CC(=O)Nc2ccc(-c3noc(-c4cc(OC)c(OC)c(OC)c4)n3)cc2)cc1,0.417
3,COc1ccc(Cc2nnc(SCC(=O)NC3CCCC3)o2)cc1,-9.12
4,CC(=O)Nc1ccc(NC(=O)c2c(C)nn(Cc3ccccc3Cl)c2C)cc1,-8.41
5,O=C(OCc1ccccc1)c1cc(S(=O)(=O)N2CCCCC2)ccc1N1CCOCC1,-27.3
6,CS(=O)(=O)Nc1ccc(C2=NN(C(=O)c3ccco3)C(c3ccc(F)cc3)C2)cc1 (stereo not shown),-81.1
7,COc1cccc(/C=N/NC(=O)C(=O)NCc2cccnc2)c1OC,52.7
8,Cn1c(=O)c2sccc2n(Cc2ccccc2)c1=O,-3.99
9,O=C(CSC1=Nc2ccccc2C2=NC(CC(=O)NCc3ccco3)C(=O)N12)NCC1CCCO1 (stereo not shown),7.92
10,CCOC(=O)c1c(N)sn(-c2ccccc2)c1=S,6.15
11,COc1ccc(OC)c(-n2c(-c3ccc(C)cc3)n[nH]c2=S)c1,0.818
12,O=C(Nc1nc2ccc([N+](=O)[O-])cc2s1)C1CCCO1 (stereo not shown),-14.8
13,CC(C)(C)C1CCC(C(=O)OCC(=O)N2CCN(C(=O)c3ccco3)CC2)CC1 (stereo not shown),-32.4
14,CC(=O)Nc1cc(-c2nc3ccccc3o2)ccc1Cl,11.6
15,COc1ccc(Cl)c(N2CCN(CCCNC(=O)Nc3ccc(C)cc3)CC2)c1,-72.4
16,Nc1ccccc1C(=O)Nc1cccc2ccccc12,7.48
17,COc1ccc(N(CC(=O)NC2CCCCC2)C(=O)CCC(=O)Nc2nc(C)cs2)cc1OC,6.12
18,COC(=O)c1ccc(C)c(NS(=O)(=O)c2ccc(NC(C)=O)cc2)c1,-17.8
19,O=C(NCc1ccccn1)c1ccc(-c2ccccc2)cc1,7.59
20,CC(NC(=O)c1ccc(F)cc1)c1ccc(F)cc1 (stereo not shown),-31.1
21,Cc1ccc(NC(=O)CCC(=O)N/N=C/c2cccnc2)cc1,8.62
22,COc1ccccc1OCC(=O)NCC1CCCN(Cc2cnn(C(C)C)c2)C1 (stereo not shown),6.8

row,Compound,"hERG current change (%, negative = inhibition) at 10uM [%]"
1,Cc1cc(C)nc(SCC(=O)NNC(=O)c2ccccc2C)n1,1.72
2,CCCCNC(=O)NS(=O)(=O)c1ccc(C)cc1,10.4
3,Cc1ccc(NS(=O)(=O)c2ccc(-c3ccc(=O)[nH]n3)o2)cc1N(C)C,1.5
4,O=C(Nc1ccc2c(c1)C(=O)OC2)c1ccc(Cl)cc1Cl,-0.86
5,O=C(Cn1cnc2ccccc2c1=O)NCCC(=O)N1CCC2(CC1)OCCO2,17.7
6,COc1cc(NC(=O)c2cccc(F)c2)cc(OC)c1OC,13.1
7,O=S(=O)(NCC1CCCO1)c1cccc(C(F)(F)F)c1 (stereo not shown),-4.14
8,Cc1cccc(C)c1NC(=O)CN1CCN(C(=O)CNC(=O)c2ccc(N3CCCC3=O)cc2)CC1,11.8
9,Cc1cccc(C)c1NC(=O)Cn1cc(C=O)c2ccccc21,13.7
10,Cn1nnnc1NCc1cccc(Cl)c1Cl,4.08
11,CSc1c(SCc2ccccc2)cnn(Cc2ccccc2)c1=O,-11
12,CN(C(=O)c1cnccn1)c1nnc(-c2cnccn2)s1,19.8
13,CN1CCc2c(sc3nc(SCC(N)=O)n(-c4ccc(Cl)cc4)c(=O)c23)C1,5.01
14,COc1ccc(OC)c(-c2cc(C(=O)NCc3ccco3)no2)c1,1.06
15,CC[n+]1ccc(/C=C/c2c[nH]c3ccccc23)cc1.[Cl-],-6.54
16,Cc1cccc(N2CCN(C(=O)c3ccc4nc[nH]c4c3)CC2)c1C,-37.9
17,COc1ccc(Oc2cnc3ccccc3n2)cc1,3.96
18,O=C(CN1C(=O)COc2ccccc21)NCCCN1CCN(c2ccccc2F)CC1,-10.7
19,O=C(N/N=C/c1cccc(OC(=O)c2cccc(Br)c2)c1)c1ccncc1,2.67
20,COc1ccccc1CNC(=O)CN(C)S(=O)(=O)c1ccc(Br)s1,-23.8
21,C=CCOc1c(CNn2nnnc2N)cccc1OC,6.68
22,NC(=S)N/N=C/c1cc([N+](=O)[O-])ccc1OCCOc1ccccc1,-1.93

row,Compound,"hERG current change (%, negative = inhibition) at 10uM [%]"
1,CC(=O)Nc1cccc(NC(=O)CSc2ncc(-c3ccc(Cl)cc3)n2Cc2ccco2)c1,-9.51
2,Nc1ccc(-c2nc3ccc(N)cc3[nH]2)cc1,7.85
3,O=C(N/N=C/c1ccncc1)c1nc2ccccc2c(=O)[nH]1,-8.65
4,COc1cc(OC)c2ccc(=O)oc2c1C(CC(=O)N1CCOCC1)c1ccc(N(C)C)cc1 (stereo not shown),17.9
5,O=C(Nc1cccnc1)c1cn(-c2ccccc2)nc1-c1cccs1,12.2
6,CCN1C(=O)N/C(=C/c2cc(C)n(Cc3ccccc3)c2C)C1=O,1.63
7,CC1CC(C)CN(C(=O)C2CCN(S(=O)(=O)c3cccc4cccnc34)CC2)C1 (stereo not shown),-6.68
8,C/C(CC(=O)NC(C)C)=N\NC(=O)C(c1ccccc1)c1ccccc1,9.95
9,CCOc1ccc(CCNC(=O)CCc2nnc3ccc(N4CCOCC4)nn23)cc1OCC,3.99
10,COc1cccc2c1SCc1ccccc1C2CC(N)=O (stereo not shown),10.1
11,OC1=C(O)c2nc3ccccc3nc21,-1.17
12,CCOC(=O)C1(Cc2ccccc2)CCCN(C(=O)c2cn[nH]c2)C1 (stereo not shown),13.4
13,C=Cc1cccc(NC(=O)c2ccc(NC(=O)c3ccco3)cc2)c1,-17.2
14,O=C(COC(=O)c1cc(Cl)nc2ccccc12)c1ccc(Cl)cc1,18.5
15,CCOc1ccc2nc(Cl)c(C3CC(c4ccco4)=NN3S(=O)(=O)c3ccccc3)cc2c1 (stereo not shown),-14.1
16,COc1ccc(-n2ncc3c2CC(C)(C)CC3NC(=O)CCn2nc(C)cc2C)cc1 (stereo not shown),-14
17,COC(=O)Cc1c(C)c2ccc(OCC(=O)NC3CCS(=O)(=O)C3)cc2oc1=O (stereo not shown),26.8
18,Cn1cc(/C=C2/SC(=O)N(c3ccccc3)C2=O)c2ccccc21,14.6
19,COCC(=O)N(CCN(C)C)Cc1cc2cc3c(cc2nc1Cl)OCO3.Cl,9.38
20,CC(=O)c1ccc(NS(=O)(=O)c2ccc3c(c2)N(C)CCO3)cc1,11.6
21,CCC(NC(=O)NCc1ccccc1)(C(F)(F)F)C(F)(F)F,5.5
22,O=C(CN(CC1CCCO1)C(=O)CCC(=O)Nc1nccs1)NCC1CCCO1 (stereo not shown),-5.53

row,Compound,"hERG current change (%, negative = inhibition) at 10uM [%]"
1,Cc1cc(S(=O)(=O)N2CCCOC2CNC(=O)C(=O)NCCc2ccco2)ccc1F (stereo not shown),-1.91
2,COc1ccc(C2=NN(c3ccc(C(=O)O)cc3)C(c3ccc(OC)c(OC)c3)C2)cc1 (stereo not shown),2.92
3,Cc1ccc(NS(=O)(=O)c2ccc3c(c2)n(C)c(=O)n3C)c(C)c1,-11.5
4,Br.O=C(Cn1c(NCCCO)nc2ccccc21)c1ccco1,2.48
5,COc1ccc(N=C2SC(C(=O)O)CC(=O)N2Cc2ccc(OC)c(OC)c2)cc1 (stereo not shown),2.27
6,CC(=O)Nc1nnc(SCC(=O)N2CCCc3ccccc32)s1,6.76
7,C=CCSc1nnc(-c2nnc(SCC=C)n2-c2ccccc2)n1-c1ccccc1,-37.7
8,Cn1cc(CN2CCC(O)CC2)c(-c2ccc(Oc3ccccc3)cc2)n1,-23.7
9,O=[N+]([O-])c1cccc(C=Nc2cccc3ccccc23)c1O,12.7
10,CCCCNC(=O)Cn1nc(-c2ccc(C)cc2)ccc1=O,-1.13
11,CCC(C)C(NS(=O)(=O)c1ccc(C)cc1)C(=O)NCCCN1CCOCC1 (stereo not shown),20.7
12,COc1ccc(NC(=O)CN2CCCN(S(=O)(=O)c3ccc(F)cc3)CC2)cc1,-36.5
13,COc1ccc(C(=O)N2CCN(Cc3ccccc3)CC2)cc1[N+](=O)[O-],-52
14,CC(=O)NCCc1nc2cc(NC(=O)c3ccc(Cl)cc3)ccc2n1C,0.932
15,CCc1cc2c(Nc3ccc(O)cc3)nc(C)nc2s1.Cl,8.46
16,O=C(NNC(=S)Nc1ccccc1)c1cc(Br)ccc1Cl,12.2
17,Cn1cc(CN2CCc3sccc3C2)c(-c2ccccc2F)n1,-4.7
18,COc1cc(NC(=S)NN2CCN(C)CC2)cc(OC)c1OC,-3.14
19,O=C(NCc1cccs1)C(=O)NCC(c1ccco1)N1CCN(c2ccccc2F)CC1 (stereo not shown),-2.25
20,CN(C)CCCNC(=O)c1cc(C(=O)c2ccc(F)cc2)c[nH]1,-68.5
21,Br.c1ccc(-c2csc(Nc3ccc4c(c3)OCCO4)n2)cc1,5.4
22,COc1ccccc1C(=O)NC1CC(C)(C)NC(C)(C)C1,20.5

# From publication PMC4336329 (PLoS ONE, 2015)
